Among all 110,000 compounds or so, about 230 (0.21%) showed an effect of 50% or more. The list shows a part of the results.
These compounds were tested against DPAP1 (Plasmodium falciparum, UniProt Q8IIJ9) (assay: primary screen, percent inhibition; read by cleavage of a fluorogenic dipeptide substrate; higher = more effect of the substance).
Set-up: species or system P. falciparum D10 trophozoite lysates; single well
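Also: 30 min substrate incubation versus DMSO and 10 µM JCP410 controls.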

DPAP1, sequence (Q8IIJ9 whole entry, looked up): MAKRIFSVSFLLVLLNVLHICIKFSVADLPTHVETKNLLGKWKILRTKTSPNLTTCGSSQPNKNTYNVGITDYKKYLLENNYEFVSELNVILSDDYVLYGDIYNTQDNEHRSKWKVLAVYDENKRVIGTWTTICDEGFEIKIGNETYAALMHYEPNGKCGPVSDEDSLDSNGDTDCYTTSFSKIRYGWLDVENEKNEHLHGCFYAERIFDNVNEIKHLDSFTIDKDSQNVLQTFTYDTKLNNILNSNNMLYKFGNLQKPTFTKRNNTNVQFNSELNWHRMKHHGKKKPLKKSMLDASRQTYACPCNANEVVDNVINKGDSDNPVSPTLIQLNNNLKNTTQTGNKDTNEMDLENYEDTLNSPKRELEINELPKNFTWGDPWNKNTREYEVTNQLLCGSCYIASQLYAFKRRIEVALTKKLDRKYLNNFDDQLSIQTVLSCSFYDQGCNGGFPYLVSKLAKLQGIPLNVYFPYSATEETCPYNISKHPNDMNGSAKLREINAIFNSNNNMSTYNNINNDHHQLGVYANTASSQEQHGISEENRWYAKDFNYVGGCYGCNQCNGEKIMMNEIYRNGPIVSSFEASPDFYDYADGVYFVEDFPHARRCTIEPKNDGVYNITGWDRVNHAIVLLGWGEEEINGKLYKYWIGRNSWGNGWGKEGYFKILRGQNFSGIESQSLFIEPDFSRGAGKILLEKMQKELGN

| SMILES | % Inhibition @ 10 uM [%] |
| --- | --- |
| Cc1nn(C)c(C)c1-c1c(C#N)c(N)nc2c1CCCCCC2 | -1.32 |
| COc1ccc(C(=O)N[C@@H](Cc2ccc(NC(=N)N)cc2)C(=O)NCC#N)cc1 | -1.41 |
| CCOC(=O)c1ccc(NC(=O)Nc2cccc(Cl)c2)cc1 | 4.67 |
| CSc1ncc(Cl)c(C(=O)Nc2sc3c(c2C(=O)NCC2CCCO2)CCCC3)n1 (centres unmarked) | -1.11 |
| C/C(Cl)=C/Cn1c(SC(C)C)nc2c1c(=O)[nH]c(=O)n2C | 0.687 |
| Cc1cccn2c(=O)c3cc(S(=O)(=O)c4ccccc4)c(=N)n(C4CCCCC4)c3nc12 | 7.49 |
| CC(C)(C)c1ccc(C(=O)N(Cc2ccco2)C2CCS(=O)(=O)C2)cc1 (centres unmarked) | -2.85 |
| COc1ccc(CCNC(=O)CNS(=O)(=O)c2ccc(Br)cc2)cc1 | -2.09 |
| Cc1cc(=O)oc2c3c(ccc12)OCN(C(C)(C)C)C3 | 1.44 |
| COCC(C)NC(=O)c1cc(-c2ccc(OC)cc2)on1 (centres unmarked) | -6.26 |
| N#Cc1cccc(N2C(=O)c3ccccc3C2=O)c1 | 3.84 |
| COc1cc(NC(=O)C2CC(=O)N=C(N)S2)cc(OC)c1 (centres unmarked) | -3.29 |
| O=C(O)c1ccc(-c2nc(-c3ccc(C(=O)c4ccccc4)cc3)c(-c3ccccc3)[nH]2)cc1 | -0.479 |
| CC(=O)N1c2ccc([N+](=O)[O-])cc2NC(=O)CC1C (centres unmarked) | -0.197 |
| COc1cccc(S(=O)(=O)NCc2ccc(C(=O)Nc3cccc(Cl)c3)cc2)c1 | -1.55 |
| CC(C)(C)c1ccc(S(=O)(=O)NCc2ccc(C(=O)N3CCCC3)cc2)cc1 | -1.82 |
| O=C(CCc1ccccc1)Nc1nnc(Cc2ccc(Cl)c(Cl)c2)s1 | 1.58 |
| CC(CCc1ccco1)NC(=O)C1CCN(c2cnccn2)CC1 (centres unmarked) | -2.88 |
| CN1C(C(=O)NCC2CCCO2)=CC(c2ccco2)=NS1(=O)=O (centres unmarked) | 5.48 |
| NC(=O)c1nc2n(c1N)CCCCC2 | 2.73 |
| COc1cc2nc(O)n3nc(-c4ccccc4)nc3c2cc1OC | 12.9 |
| COc1ccc(CCNC(=O)c2cc(-c3ccco3)nc3ccccc23)cc1 | 9.59 |
| COc1ccc(-n2c(Cc3cccn3C)nnc2SCC(=O)N2CCC(C)CC2)cc1 | -5.76 |
| O=C(c1ccccc1)c1ccc(C(=O)N2CCN(c3ccc(F)cc3)CC2)o1 | -6.83 |
| Cn1c(C(=O)NCc2ccco2)cc2sccc21 | -4.85 |
| CN1CCN(C(=O)/C(=C\c2cccs2)NC(=O)c2cccs2)CC1 | -7.02 |

| SMILES | % Inhibition @ 10 uM [%] |
| --- | --- |
| Cc1nn2c(O)cc(-c3ccccc3)nc2c1-c1ccc(Cl)cc1 | 3.41 |
| Cc1c(N2C(=O)c3cccc([N+](=O)[O-])c3C2=O)c(=O)n(-c2ccccc2)n1C | 1.08 |
| CCCCOC(=O)c1ccc(-n2nnc3ccccc32)cc1 | -0.969 |
| CCOc1ccc(-c2cn3c(n2)sc2cc(C(=O)NCCCN4CCCCC4C)ccc23)cc1 (centres unmarked) | 3.54 |
| CCN(CC)CCN(C)Cc1cccc(Cl)c1 | 1.26 |
| O=C1c2cccnc2C(=O)N1CCc1ccc(S(=O)(=O)NCCc2ccc(Cl)cc2)cc1 | 5.86 |
| CCN(CC)S(=O)(=O)c1cc(C(=O)Nc2ccc(C)cc2)cc(C)c1C | 0.755 |
| Cc1cccc(-c2nnc3sc(NC(=O)c4ccccc4F)nn23)c1 | 0.00665 |
| COC(=O)c1cc(S(=O)(=O)NCCc2cccc(C)c2)cn1C | -6.59 |
| O=C(CN(c1ccccc1)S(=O)(=O)c1ccccc1)Nc1ccc(Cl)c(Cl)c1 | -8.37 |
| C1CNC2C(C1)C1CCCCN1C1CCCCN21 (centres unmarked) | -3.21 |
| CC(=O)Nc1ccc(NS(C)(=O)=O)cc1 | -3.65 |
| O=C(CN1CCCCC1)N1CCN(c2nnc(-c3ccccc3)c3ccccc23)CC1 | 0.778 |
| Nc1cccc(CC(=S)N2CCOCC2)c1 | -3.35 |
| N=c1c2c(-c3ccccc3)c(-c3ccccc3)oc2ncn1CCCO | 5 |
| CCOC(=O)c1nnn(-c2nonc2-c2ccccc2)c1CN(CC)CC | -0.631 |
| O=C(Nc1cccc(Cl)c1)N1CCCC1 | 4.73 |
| N/C(=N/OC(=O)CC(NC(=O)C(F)(F)F)c1ccccc1)c1nonc1N (centres unmarked) | -3.48 |
| O=C(O)c1[nH]c2ccccc2c1Sc1ccc(Cl)cc1 | -2.21 |
| CC(=O)N1CCN(C2CCN(C)CC2)CC1 | -0.0908 |
| CN1CCN(C(=O)/C(=C/c2ccccc2)NC(=O)c2ccccc2)CC1 | -0.968 |
| COC(=O)c1cc(S(=O)(=O)N2CCCC(C)C2)c[nH]1 (centres unmarked) | -7.52 |
| CNC(=O)c1cc(-c2ccc(OC)c(OC)c2)nc2ccccc12 | -11 |
| O=C(NCC1CCCO1)c1ccccc1 (centres unmarked) | -0.292 |
| Cc1nnc(N2CCC(C(=O)NCc3ccccc3Cl)CC2)c2nn(-c3ccccc3)c(C)c12 | -2.12 |
| COc1ccc(S(=O)(=O)Nc2cc(Cl)c(Cl)cc2Cl)cc1 | -4.63 |

| SMILES | % Inhibition @ 10 uM [%] |
| --- | --- |
| CCCN1C(=O)c2[nH]nc(-c3ccc(F)cc3)c2C1c1cccs1 (centres unmarked) | 0.635 |
| CC(=O)NS(=O)(=O)c1ccc(NC(=O)c2ccccc2F)cc1 | -0.95 |
| CN(CC(=O)NCc1ccc(Cl)cc1)S(=O)(=O)c1ccc(-c2ccc(O)nn2)s1 | -8.58 |
| Cc1ccc(C(=O)c2oc3ccccc3c2NC(=O)C(C)C)cc1 | 5.5 |
| O=C(CN(c1ccc(Cl)c(C(F)(F)F)c1)S(=O)(=O)c1ccccc1)NCC1CCCO1 (centres unmarked) | 20 |
| COCCNC(=O)C1CCN(S(=O)(=O)N2CCCC2)CC1 | 2.18 |
| O=C(O)CC1(CC(=O)Nc2ccccc2Br)CCCC1 | -1.82 |
| CCCC1=NC(C(F)(F)F)(C(F)(F)F)N=C(N2CCOCC2)O1 | -1.72 |
| NS(=O)(=O)c1ccc(NC(=O)/C=C/c2cccc([N+](=O)[O-])c2)cc1 | 11.4 |
| O=C(CN(CCc1ccccc1)S(=O)(=O)c1ccc(Cl)cc1)N1CCCCCC1 | -4.14 |
| COc1ccc(C(=O)N2CCCCC2)cc1S(=O)(=O)N1CCOCC1 | -0.48 |
| COc1cc(/C=C2\NC(=O)NC2=O)cc(Br)c1OC | 0.273 |
| Cn1cc(SCC(=O)Nc2nccs2)c2ccccc21 | -3.67 |
| CCNC(=O)/C(C#N)=C/c1c(Oc2cccc(C)c2)nc2ccccn2c1=O | 3.12 |
| CC(=O)c1cccc(NS(=O)(=O)c2c(C)cc(C)cc2C)c1 | 0.475 |
| NS(=O)(=O)c1ccc(CCNC(=O)CCC2COc3ccccc3O2)cc1 (centres unmarked) | -5.41 |
| CC(C)(C)NCC(O)COc1ccc(Cl)cc1 (centres unmarked) | 0.177 |
| COc1ccc(C(=O)Nc2ccccc2C(C)C)cc1 | 2.65 |
| N#CCNC(=O)[C@H](Cc1ccccc1)NC(=O)c1ccccc1 | -1.83 |
| COC(=O)C1=CN(C)C=C(C(=O)OC)C1c1cc(Cl)c(O)c(OC)c1 | -5.05 |
| Cc1ccccc1OCC(=O)Nc1ccc(Nc2ccccc2)cc1 | 2.17 |
| CCOc1cc(C)c(S(=O)(=O)Nc2ccc(Cl)cn2)cc1C | -1.17 |
| CCSc1nnc(C)c2ccccc12 | -8.8 |
| CCOc1ccc(C(=O)Cc2ccccc2)cc1 | 3.39 |
| O=C(NCc1ccc2c(c1)OCO2)c1nc(S(=O)(=O)Cc2ccc(F)cc2)ncc1Cl | -0.946 |
| O=C1/C(=C\c2cc3c(cc2Br)OCO3)Sc2ccccc21 | 4.07 |

| SMILES | % Inhibition @ 10 uM [%] |
| --- | --- |
| N#CC1(c2ccccc2)CCCN1C(=O)c1ccc(Br)o1 (centres unmarked) | -7.18 |
| O=C1c2ccccc2-c2nnc(-c3ccc4c(c3)OCO4)cc21 | -2.15 |
| Cc1ccc(C2C(C#N)=C(N)Oc3[nH]c(C)nc32)cc1 (centres unmarked) | 2.01 |
| CCC(Cc1ccccc1)NC(=O)c1cc(S(=O)(=O)N2CCCCC2)c[nH]1 (centres unmarked) | 1.17 |
| CCn1c(=N)n(CCCOc2ccccc2)c2ccccc21 | -2.21 |
| O=[N+]([O-])c1cc(-c2ccnn2-c2ccccc2)c(Cl)cc1Cl | -0.261 |
| CC(=O)C1=C(O)C(=O)N(CCc2c[nH]c3ccccc23)C1c1ccc(O)cc1 (centres unmarked) | -1.89 |
| O=C(O)CCC(=O)NCc1cccnc1 | -4.35 |
| COCCNCc1c(C(=O)O)n(Cc2ccccc2C)c2cc(C)ccc12 | -0.717 |
| COc1cccc(C(=O)Nc2cc(C(F)(F)F)cc(C(F)(F)F)c2)c1OC | -3.5 |
| CC1(C)CC(=O)C(C(=O)CCCN2C(=O)c3ccccc3C2=O)=C(N2CCCC2)C1 | -6.42 |
| CC(C)N(Cc1nc(-c2ccc(Cl)cc2)no1)C(=O)c1cccs1 | -0.352 |
| Cc1cccc(C)c1NC(=O)C(C)(C)NC(=O)CN1C(=O)c2ccccc2C1=O | -2.72 |
| C=CCSc1ncccc1C(=O)NCCc1ccccc1 | -2.26 |
| N#C/C(=C\c1ccc(Cl)cc1)c1nc(-c2ccccc2)cs1 | -3.79 |
| COCCNc1nc2c(c(=O)n(C)c(=O)n2C)n1Cc1cc(OC)ccc1Cl | 0.248 |
| COc1ccc(S(=O)(=O)Nc2ccc(C)c(O)c2)cc1 | -1.11 |
| CN1CCN(C(=O)CSc2nc3c(c(C(F)(F)F)n2)CCc2ccccc2-3)CC1 | 4.93 |
| COc1ccc(CN(C)CCN(C)C)cc1C | -3.04 |
| CCOc1cccc(-c2nnc(SCC(=O)C34CC5CC(CC(C5)C3)C4)n2C)c1 | -3.34 |
| COC(=O)Cn1c2c(c3cc(C)ccc31)CCCC2 | -1.82 |
| COc1ccc(NC(=O)c2sc3nc(-c4cccs4)ccc3c2N)c(C)c1 | 3.53 |
| O=C(c1cc2c(s1)-c1ccccc1OC2)N1CCOCC1 | -3.08 |

From paper PMC6919601, “Identification of Plasmodium dipeptidyl aminopeptidase allosteric inhibitors by high throughput screening” (PLoS ONE, 2019)
